From the supplement of paper PMC8728848
This is one part of the list.

How the values were obtained:
Test in all cases: glycan array binding signal (z-score within array); higher = stronger binding
Details in all cases: glycan notation: IUPAC condensed, linker removed
[1] = target: Neu5Ac(a2-3)Gal(b1-4)[Fuc(a1-3)]GlcNAc(b1-2)Man
Summary of the method: (§1)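 The binding signal is a Z-score computed within each array. Data were drawn from 3228 arrays in the Consortium for Functional Glycomics database, restricted to those with a known protein sequence. Scores were averaged over arrays of the same protein sequence at different concentrations or buffers, and over linkers, and negative values can be taken as non-binding.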

[2] = target: Neu5Ac(a2-3)Gal(b1-4)[Fuc(a1-3)]GlcNAc(b1-3)Gal
Summary of the method: as §1

[3] = target: Neu5Ac(a2-3)Gal(b1-4)[Fuc(a1-3)]GlcNAc(b1-3)Gal(b1-4)GlcNAc
Summary of the method: as §1

[4] = target: Neu5Ac(a2-3)Gal(b1-4)[Fuc(a1-3)]GlcNAc(b1-3)Gal(b1-4)[Fuc(a1-3)]GlcNAc(b1-3)Gal(b1-4)[Fuc(a1-3)]GlcNAc
Summary of the method: as §1

[5] = target: Neu5Ac(a2-3)Gal(b1-4)[Fuc(a1-3)]GlcNAc(b1-3)GalNAc
Summary of the method: as §1

[6] = target: Neu5Ac(a2-3)Gal(b1-4)[Fuc(a1-3)]GlcNAc(b1-6)[Gal(b1-3)]GalNAc
Summary of the method: as §1

[7] = target: Neu5Ac(a2-3)Gal(b1-4)[Fuc(a1-3)]GlcNAc(b1-6)[Neu5Ac(a2-3)Gal(b1-3)]GalNAc
Summary of the method: as §1

[8] = target: Neu5Ac(a2-3)Gal(b1-4)[Fuc(a1-3)]GlcNAc6S
Summary of the method: as §1

[9] = target: Neu5Ac(a2-3)Gal6S(b1-4)GlcNAc
Summary of the method: as §1

[10] = target: Neu5Ac(a2-3)Gal6S(b1-4)[Fuc(a1-3)]GlcNAc
Summary of the method: as §1

Neu5Ac(a2-3)GalNAc = target: Neu5Ac(a2-3)GalNAc
Summary of the method: as §1

[11] = target: Neu5Ac(a2-3)GalNAc(b1-4)GlcNAc
Summary of the method: as §1

[12] = target: Neu5Ac(a2-3)[GalNAc(b1-4)]Gal(b1-4)Glc
Summary of the method: as §1

[13] = target: Neu5Ac(a2-3)[GalNAc(b1-4)]Gal(b1-4)GlcNAc
Summary of the method: as §1

[14] = target: Neu5Ac(a2-3)[GalNAc(b1-4)]Gal(b1-4)GlcNAc(b1-3)GalNAc
Summary of the method: as §1

[15] = target: Neu5Ac(a2-3)[Neu5Ac(a2-6)]GalNAc
Summary of the method: as §1

Neu5Ac(a2-6)Gal = target: Neu5Ac(a2-6)Gal
Summary of the method: as §1

[16] = target: Neu5Ac(a2-6)Gal(b1-3)GlcNAc(b1-3)[Gal(b1-4)GlcNAc(b1-6)]Gal(b1-4)Glc
Summary of the method: as §1

Neu5Ac(a2-6)Gal(b1-4)Glc = target: Neu5Ac(a2-6)Gal(b1-4)Glc
Summary of the method: as §1

[17] = target: Neu5Ac(a2-6)Gal(b1-4)GlcNAc
Summary of the method: as §1

[18] = target: Neu5Ac(a2-6)Gal(b1-4)GlcNAc(b1-2)Man
Summary of the method: as §1

[19] = target: Neu5Ac(a2-6)Gal(b1-4)GlcNAc(b1-2)Man(a1-3)Man(b1-4)GlcNAc(b1-4)GlcNAc
Summary of the method: as §1

[20] = target: Neu5Ac(a2-6)Gal(b1-4)GlcNAc(b1-2)Man(a1-3)[Gal(b1-4)GlcNAc(b1-2)Man(a1-6)]Man(b1-4)GlcNAc(b1-4)GlcNAc
Summary of the method: as §1

[21] = target: Neu5Ac(a2-6)Gal(b1-4)GlcNAc(b1-2)Man(a1-3)[GlcNAc(b1-2)Man(a1-6)]Man(b1-4)GlcNAc(b1-4)GlcNAc
Summary of the method: as §1

[22] = target: Neu5Ac(a2-6)Gal(b1-4)GlcNAc(b1-2)Man(a1-3)[GlcNAc(b1-2)Man(b1-4)GlcNAc(b1-2)Man(a1-6)]Man(b1-4)GlcNAc(b1-4)GlcNAc
Summary of the method: as §1

[23] = target: Neu5Ac(a2-6)Gal(b1-4)GlcNAc(b1-2)Man(a1-3)[GlcNAc(b1-4)][Neu5Ac(a2-6)Gal(b1-4)GlcNAc(b1-2)Man(a1-6)]Man(b1-4)GlcNAc(b1-4)GlcNAc
Summary of the method: as §1

[24] = target: Neu5Ac(a2-6)Gal(b1-4)GlcNAc(b1-2)Man(a1-3)[Man(a1-6)]Man(b1-4)GlcNAc(b1-4)GlcNAc
Summary of the method: as §1

[25] = target: Neu5Ac(a2-6)Gal(b1-4)GlcNAc(b1-2)Man(a1-3)[Neu5Ac(a2-3)Gal(b1-4)GlcNAc(b1-2)Man(a1-6)]Man(b1-4)GlcNAc(b1-4)GlcNAc
Summary of the method: as §1

[26] = target: Neu5Ac(a2-6)Gal(b1-4)GlcNAc(b1-2)Man(a1-3)[Neu5Ac(a2-6)Gal(b1-4)GlcNAc(b1-2)Man(a1-6)]Man(b1-4)GlcNAc(b1-4)GlcNAc
Summary of the method: as §1

B1: Siglec-F (Mus musculus), Q920G3 (protein)
chain: MRWAWLLPLLWAGCLATDGYSLSVTGSVTVQEGLCVFVACQVQYPNSKGPVFGYWFREGANIFSGSPVATNDPQRSVLKEAQGRFYLMGKENSHNCSLDIRDAQKIDTGTYFFRLDGSVKYSFQKSMLSVLVIALTEVPNIQVTSTLVSGNSTKLLCSVPWACEQGTPPIFSWMSSALTSLGHRTTLSSELNLTPRPQDNGTNLTCQVNLPGTGVTVERTQQLSVIYAPQKMTIRVSWGDDTGTKVLQSGASLQIQEGESLSLVCMADSNPPAVLSWERPTQKPFQLSTPAELQLPRAELEDQGKYICQAQNSQGAQTASVSLSIRSLLQLLGPSCSFEGQGLHCSCSSRAWPAPSLRWRLGEGVLEGNSSNGSFTVKSSSAGQWANSSLILSMEFSSNHRLSCEAWSDNRVQRATILLVSGPKVSQAGKSETSRGTVLGAIWGAGLMALLAVCLCLIFFTVKVLRKKSALKVAATKGNHLAKNPASTINSASITSSNIALGYPIQGHLNEPGSQTQKEQPPLATVPDTQKDEPELHYASLSFQGPMPPKPQNTEAMKSVYTEIKIHKC
glycan array binding signal (z-score) [1]: -0.074
glycan array binding signal (z-score) [2]: -0.088
glycan array binding signal (z-score) [3]: -0.103
glycan array binding signal (z-score) [4]: -0.109
glycan array binding signal (z-score) [5]: -0.115
glycan array binding signal (z-score) [6]: -0.034
glycan array binding signal (z-score) [7]: 0.02
glycan array binding signal (z-score) [8]: -0.025
glycan array binding signal (z-score) [9]: 13.2
glycan array binding signal (z-score) [10]: 12.9
glycan array binding signal (z-score) (Neu5Ac(a2-3)GalNAc): -0.125
glycan array binding signal (z-score) [11]: 0.292
glycan array binding signal (z-score) [12]: -0.044
glycan array binding signal (z-score) [13]: -0.065
glycan array binding signal (z-score) [14]: 0.04
glycan array binding signal (z-score) [15]: -0.1
glycan array binding signal (z-score) (Neu5Ac(a2-6)Gal): -0.117
glycan array binding signal (z-score) [16]: -0.111
glycan array binding signal (z-score) (Neu5Ac(a2-6)Gal(b1-4)Glc): -0.117
glycan array binding signal (z-score) [17]: -0.114
glycan array binding signal (z-score) [18]: -0.153
glycan array binding signal (z-score) [19]: -0.11
glycan array binding signal (z-score) [20]: -0.088
glycan array binding signal (z-score) [21]: -0.099
glycan array binding signal (z-score) [22]: 0.334
glycan array binding signal (z-score) [23]: -0.149
glycan array binding signal (z-score) [24]: -0.118
glycan array binding signal (z-score) [25]: 0.793
glycan array binding signal (z-score) [26]: -0.031
